# PubChem BioAssay (Tox21)
# Several values for one entry are separate records, joined by “and”; a condition that tells them apart may be missing. Identical values can stand only once. Inconclusive means that the source gave no clear call. Such entries were picked first, then a sample of the others. For part of these data: Potencies of inconclusive entries are doubtful fits and often do not repeat. Activity calls are given as the source filed them. Unless noted, calls come from the whole dose curve; as a rule, active = well fitted curve in the direction sought with a large enough effect in the repeat runs; inconclusive = weak or mixed curves; inactive = no such curve, though single readings can be large; an effect the other way counts as inactive or inconclusive.
# What was measured:
# [1] = molecular target: Peroxisome proliferator-activated receptor gamma (Homo sapiens) (UniProt P37231); test: qHTS assay to identify small molecule antagonists of the peroxisome proliferator-activated receptor gamma (PPARg) signaling pathway (AID 743191; calls by dose curve; note: nearly all actives have a fitted effect of over 30% in size; note: potency is the fitted concentration of half-maximal effect; for ratio activity, negative = inhibition: % is set by controls: 0 for no effect and ±100 for the full control effect); settings: HEK293H PPARg-UAS-bla, beta-lactamase ratio, antagonist, 17 h
# UniProt P37231, sequence (P37231 whole entry, looked up): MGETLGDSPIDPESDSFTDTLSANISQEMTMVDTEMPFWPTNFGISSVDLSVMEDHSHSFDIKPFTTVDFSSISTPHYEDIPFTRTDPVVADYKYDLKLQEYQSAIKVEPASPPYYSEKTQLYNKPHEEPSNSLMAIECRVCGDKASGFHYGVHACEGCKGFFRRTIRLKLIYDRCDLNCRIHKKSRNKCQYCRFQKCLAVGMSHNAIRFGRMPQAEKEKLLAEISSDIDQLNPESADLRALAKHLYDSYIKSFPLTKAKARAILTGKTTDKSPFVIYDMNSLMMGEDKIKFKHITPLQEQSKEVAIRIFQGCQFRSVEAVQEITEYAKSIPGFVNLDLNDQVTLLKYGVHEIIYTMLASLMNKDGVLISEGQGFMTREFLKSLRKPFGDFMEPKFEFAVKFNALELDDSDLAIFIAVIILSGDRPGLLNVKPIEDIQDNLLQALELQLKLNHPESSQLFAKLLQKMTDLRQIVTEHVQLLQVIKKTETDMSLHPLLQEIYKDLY
# In short: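 GeneBLAzer PPARg UAS-bla HEK293H cells carrying a UAS-driven beta-lactamase reporter were plated at 3000 cells/well, preincubated 5 h at 37C, then given compound for 17 h at 37C; LiveBLAzer B/G FRET substrate was read after 1 h at room temperature.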
# [2] = qHTS assay to identify small molecule antagonists of the peroxisome proliferator-activated receptor gamma (PPARg) signaling pathway - cell viability counter screen (AID 743194); settings: PPARg-bla HEK293H viability, CellTiter-Glo luminescence, 17 h, co-treated with 50 nM rosiglitazone; activity change, negative = cytotoxicity: at 62.6 µM (top of the series) unless noted; note: nearly all actives have a fitted effect of over 55% in size; note: potency is the fitted concentration of half-maximal effect
# In short: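 PPARg-UAS-bla HEK293H cells were plated, rested 5 h at 37 C, then treated with compounds plus rosiglitazone (50 nM final) for 17 h at 37 C; viability was then read by CellTiter-Glo luminescence after 30 min at room temperature.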
# [3] = qHTS assay for small molecule agonists of the antioxidant response element (ARE) signaling pathway - cell viability counter screen (AID 743203; calls by dose curve; note: potency is the fitted concentration of half-maximal effect; nearly all actives have a fitted effect of over 55% in size); settings: ARE-bla HepG2 viability, CellTiter-Glo luminescence, 16 h; viability change, negative = cytotoxic: at 73.3 µM (top of the series)
# In short: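 Viability counter screen: CellTiter-Glo luminescence, read after 30 min at room temperature, in ARE-bla HepG2 wells. Compound exposure lasted 16 h at 37C/5% CO2, following a 5 h pre-incubation of the cells after plating.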
# [4] = qHTS assay for small molecule activators of the heat shock response signaling pathway (AID 743210; active = well fitted activation curve with a large enough effect in the signal ratio in the repeat runs, with a control signal flat, not every such curve was filed as active; inconclusive = weak or mixed curves; the % refers to the signal ratio; note: potency is the fitted concentration of half-maximal effect); settings: HeLa HSE-bla reporter, beta-lactamase ratio, 5 h; activation: at 62.6 µM (top of the series)
# In short: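 Heat shock element–beta-lactamase HeLa reporter cells; qHTS with compounds for 5 h at 37 C; detection by FRET substrate fluorescence after 2.5 h at RT.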
# [5] = qHTS assay to identify small molecule agonists of the peroxisome proliferator-activated receptor delta (PPARd) signaling pathway - cell viability counter screen (AID 743211); settings: PPARd-bla HEK293H viability, CellTiter-Glo luminescence, 17 h; activity change, negative = cytotoxicity: at 62.6 µM (top of the series); note: nearly all actives have a fitted effect of over 55% in size; note: potency is the fitted concentration of half-maximal effect
# In short: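 PPARd-bla HEK293H cells (3000/well) were pre-incubated 5 h at 37 C, then exposed to compound for 17 h at 37 C. After 2 h with LiveBLAzer substrate, CellTiter-Glo was added to the same wells; luminescence read after 30 min at room temperature.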
# [6] = qHTS assay to identify small molecule antagonists of the peroxisome proliferator-activated receptor delta (PPARd) signaling pathway - cell viability counter screen (AID 743213); settings: PPARd-bla HEK293H viability, CellTiter-Glo luminescence, 17 h; viability change, negative = cytotoxic: at 62 µM (top of the series) unless noted; note: potency is the fitted concentration of half-maximal effect; nearly all actives have a fitted effect of over 50% in size
# In short: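 Same-well viability: cells pre-incubated 5 h, dosed with compound plus 300 nM L165041, kept 17 h at 37 C, FRET substrate 2 h RT, then CellTiter-Glo 30 min RT and luminescence.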
# [7] = qHTS assay to identify small molecule agonists of the farnesoid-X-receptor (FXR) signaling pathway - cell viability counter screen (AID 743218); settings: FXR-bla HEK293T viability, CellTiter-Glo luminescence, 16 h; viability change, negative = cytotoxic: at 62.6 µM (top of the series) unless noted; note: nearly all actives have a fitted effect of over 45% in size; note: potency is the fitted concentration of half-maximal effect; for viability change, negative = cytotoxic: % is set by controls: 0 for no effect and ±100 for the full control effect
# In short: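 Viability counter screen in the same wells: CellTiter-Glo luminescence, 30 min room-temperature incubation, measured after the beta-lactamase read. Cells were GeneBLAzer FXR-UAS-bla HEK 293T, compound-treated 16 h at 37C.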
# [8] = qHTS assay to identify small molecule antagonists of the vitamin D receptor (VDR) signaling pathway - cell viability counter screen (AID 743225); settings: VDR-bla HEK293T viability, CellTiter-Glo luminescence, 16 h; viability change, negative = cytotoxic: at 61 µM (top of the series) unless noted; note: nearly all actives have a fitted effect of over 50% in size; note: potency is the fitted concentration of half-maximal effect
# In short: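 VDR-UAS-bla HEK 293T cells were plated and incubated 4 h at 37C, then dosed with compound plus 3 nM (final) 1-alpha,25-dihydroxyvitamin D3 for 16 h. After the 2 h beta-lactamase read, viability in the same wells was read as CellTiter-Glo luminescence after 30 min at room temperature.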
# [9] = molecular target: Peroxisome proliferator-activated receptor gamma (Homo sapiens) (UniProt P37231); test: qHTS assay to identify small molecule agonists of the peroxisome proliferator-activated receptor gamma (PPARg) signaling pathway (AID 743094; active = well fitted activation curve with a large enough effect in the signal ratio in the repeat runs, not every such curve was filed as active; inconclusive = weak or mixed curves, or effect the other way; inactive = no such curve, though single readings can be large or run the other way; the % refers to the signal ratio; note: potency is the fitted concentration of half-maximal effect; for activation: % is set by controls: 0 for no effect and ±100 for the full control effect); settings: HEK293H PPARg-UAS-bla, beta-lactamase FRET ratio, 17 h; activation: at 57 µM (top of the series) unless noted
# In short: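 Agonist activity was taken from a beta-lactamase reporter (FRET substrate, 1 h at room temperature) in HEK293H cells carrying a PPARg UAS-bla construct. Compounds in DMSO were incubated 17 h at 37C after a 5 h cell pre-incubation.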
# [10] = qHTS assay for small molecule agonists of the antioxidant response element (ARE) signaling pathway (AID 743202; active = well fitted activation curve with a large enough effect in the signal ratio in the repeat runs, not every such curve was filed as active; inconclusive = weak or mixed curves, or effect the other way; inactive = no such curve, though single readings can be large or run the other way; the % refers to the signal ratio; note: potency is the fitted concentration of half-maximal effect); settings: HepG2 ARE-bla reporter, beta-lactamase FRET, 16 h; activation: at 73.3 µM (top of the series) unless noted
# In short: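 Following a 16 h, 37 C exposure of reporter HepG2 cells (ARE-driven beta-lactamase, 2,000 cells/well) to compounds, FRET substrate was applied for 2 h at room temperature and fluorescence intensity recorded.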
# [11] = molecular target: Peroxisome proliferator-activated receptor delta (Homo sapiens) (UniProt Q03181); test: qHTS assay to identify small molecule antagonists of the peroxisome proliferator-activated receptor delta (PPARd) signaling pathway (AID 743215; active = well fitted inhibition curve with a large enough effect in the signal ratio in the repeat runs, not every such curve was filed as active; inconclusive = weak or mixed curves, or effect the other way; inactive = no such curve, though single readings can be large or run the other way; the % refers to the signal ratio;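 note: cells stimulated with agonist L165041 at 300 nM final during compound exposure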; note: potency is the fitted concentration of half-maximal effect); settings: HEK293H PPARd-UAS-bla, beta-lactamase FRET ratio, antagonist, 17 h; ratio activity, negative = inhibition: at 62 µM (top of the series) unless noted
# UniProt Q03181, sequence (Q03181 whole entry, looked up): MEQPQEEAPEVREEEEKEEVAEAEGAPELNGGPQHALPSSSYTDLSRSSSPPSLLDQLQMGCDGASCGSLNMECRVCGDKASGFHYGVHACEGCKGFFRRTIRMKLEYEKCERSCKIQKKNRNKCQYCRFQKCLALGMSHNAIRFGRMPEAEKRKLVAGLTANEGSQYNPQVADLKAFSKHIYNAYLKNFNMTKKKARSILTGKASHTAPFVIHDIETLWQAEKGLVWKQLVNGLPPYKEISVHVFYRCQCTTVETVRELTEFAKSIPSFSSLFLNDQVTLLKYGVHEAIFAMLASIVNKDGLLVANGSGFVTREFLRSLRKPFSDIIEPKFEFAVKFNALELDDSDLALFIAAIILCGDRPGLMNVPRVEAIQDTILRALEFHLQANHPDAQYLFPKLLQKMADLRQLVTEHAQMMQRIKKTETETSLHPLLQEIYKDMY
# In short: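 Agonist L165041 (300 nM final) added with compound to PPARd-bla HEK293H UAS-bla reporter cells; 17 h incubation at 37 C. Read-out: LiveBLAzer FRET substrate, 2 h at room temperature, fluorescence intensity.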
# [12] = qHTS assay for small molecule activators of the heat shock response signaling pathway - cell viability counter screen (AID 743209); settings: HSE-bla HeLa viability, CellTiter-Glo luminescence, 5 h; activity change, negative = cytotoxicity: at 62.6 µM (top of the series) unless noted; note: potency is the fitted concentration of half-maximal effect; nearly all actives have a fitted effect of over 50% in size
# In short: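 Cytotoxicity counter screen run in the same wells as the heat-shock bla reporter assay: HeLa HSE-bla cells, 5 h compound exposure at 37 C, viability read by CellTiter-Glo luminescence.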
# [13] = qHTS assay to identify small molecule antagonists of the farnesoid-X-receptor (FXR) signaling pathway - cell viability counter screen (AID 743221; active = well fitted cell-killing curve with a large enough effect in the repeat runs, not every such curve was filed as active; inconclusive = weak or mixed curves, or effect the other way; inactive = no such curve, though single readings can be large or run the other way; note: potency is the fitted concentration of half-maximal effect; nearly all actives have a fitted effect of over 50% in size); settings: FXR-bla HEK293T viability, CellTiter-Glo luminescence, 16 h; activity change, negative = cytotoxicity: at 62.6 µM (top of the series)
# In short: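 GeneBLAzer FXR-UAS-bla HEK 293T cells, compound plus chenodeoxycholic acid (50 uM final), 16 h at 37 C. CellTiter-Glo added to the same wells after the beta-lactamase read; luminescence read after 30 min at room temperature as viability.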
# [14] = molecular target: Vitamin D3 receptor (Homo sapiens) (UniProt P11473); test: qHTS assay to identify small molecule antagonists of the vitamin D receptor (VDR) signaling pathway (AID 743223; active = well fitted inhibition curve with a large enough effect in the signal ratio in the repeat runs, not every such curve was filed as active; inconclusive = weak or mixed curves, or effect the other way; inactive = no such curve, though single readings can be large or run the other way; the % refers to the signal ratio; note: potency is the fitted concentration of half-maximal effect); settings: VDR-UAS-bla HEK293T, beta-lactamase FRET ratio, 16 h; activity change, negative = inhibition: at 61 µM (top of the series) unless noted
# UniProt P11473, sequence (P11473 whole entry, looked up): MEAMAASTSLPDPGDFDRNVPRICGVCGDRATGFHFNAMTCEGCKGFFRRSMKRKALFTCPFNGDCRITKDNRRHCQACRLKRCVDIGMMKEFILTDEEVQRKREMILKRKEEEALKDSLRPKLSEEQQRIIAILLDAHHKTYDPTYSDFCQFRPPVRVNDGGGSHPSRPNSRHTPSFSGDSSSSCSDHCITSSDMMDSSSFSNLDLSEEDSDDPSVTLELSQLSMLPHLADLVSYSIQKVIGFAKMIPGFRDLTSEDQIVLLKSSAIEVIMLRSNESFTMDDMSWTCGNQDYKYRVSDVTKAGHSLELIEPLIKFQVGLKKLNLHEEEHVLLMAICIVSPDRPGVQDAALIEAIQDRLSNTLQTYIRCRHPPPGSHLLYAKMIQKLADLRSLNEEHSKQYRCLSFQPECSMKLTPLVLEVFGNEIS
# In short: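 VDR-bla cells were treated with compound plus 3 nM final 1alpha,25-dihydroxyvitamin D3 for 16 h at 37C. Beta-lactamase reporter read by B/G FRET substrate fluorescence after 2 h at room temperature. qHTS format.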
# [15] = molecular target: Peroxisome proliferator-activated receptor delta (Homo sapiens) (UniProt Q03181); test: qHTS assay to identify small molecule agonists of the peroxisome proliferator-activated receptor delta (PPARd) signaling pathway (AID 743212; calls by dose curve; note: potency is the fitted concentration of half-maximal effect); settings: HEK293H PPARd-UAS-bla, beta-lactamase FRET ratio, 17 h; activation: at 62.6 µM (top of the series) unless noted
# In short: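 Beta-lactamase reporter read by fluorescence (LiveBLAzer B/G FRET, 2 h, room temperature). Test agents, in DMSO, incubated at 37 C with PPARd-bla HEK293H cells.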
# [16] = molecular target: Vitamin D3 receptor (Homo sapiens) (UniProt P11473); test: qHTS assay to identify small molecule agonists of the vitamin D receptor (VDR) signaling pathway (AID 743222; calls by dose curve; note: % is set by controls: 0 for no effect and ±100 for the full control effect); settings: HEK293T VDR-UAS-bla, beta-lactamase FRET ratio, 16 h
# In short: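 Agonist mode, beta-lactamase reporter: fluorescence from LiveBLAzer B/G FRET substrate (2 h, room temperature) read after 16 h compound treatment at 37 C of VDR-bla cells, which were pre-incubated 4 h after seeding.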
# [17] = qHTS assay to identify small molecule agonists of the vitamin D receptor (VDR) signaling pathway - cell viability counter screen (AID 743224); settings: VDR-bla HEK293T viability, CellTiter-Glo luminescence, 16 h; activity change, negative = cytotoxicity: at 62.6 µM (top of the series) unless noted
# In short: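 Counter screen run in the same wells as the VDR-bla reporter assay: CellTiter-Glo luminescence, 30 min at room temperature, after 16 h compound treatment at 37C of cells pre-plated for 4 h.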
# [18] = ratio activity, negative = inhibition: at 62.6 µM (top of the series) unless noted
# Tags give direction and shape of the fitted curve or compound fluorescence and quenching.
structure (smiles),measurement,setting,value
O=C(Nc1ccccc1SSc1ccccc1NC(=O)c1ccccc1)c1ccccc1,Potency,[1]; [18],"inconclusive: 13.8 µM [cytotoxic, partial curve, poor fit]"
same,"ratio activity, negative = inhibition",[1]; [18],inconclusive: 3.88% [at 81.1 µM]
same,Potency,[2],"inconclusive: 62 µM [cytotoxic, single point]"
same,Potency,[3],"inconclusive: 12.2 µM [cytotoxic, full curve]"
same,Potency,[4],inconclusive: 6.69 µM and inconclusive: 19.5 µM [partial curve]
same,Potency,[5],active: 19.6 µM and active: 12.3 µM
same,Potency,[6],active: 12.4 µM and active: 11 µM
same,Potency,[7],"inconclusive: 13.9 µM [cytotoxic, full curve] and inactive"
same,Potency,[8],"inconclusive: 43.9 µM [cytotoxic, partial curve, poor fit] and inconclusive: 21.9 µM [cytotoxic, full curve]"
CCc1ccc(O)cc1,Potency,[9],inactive
same,Potency,[7],inactive
CC1=C(CC(=O)O)c2cc(F)ccc2/C1=C\c1ccc(S(C)=O)cc1 (stereo unspecified),Potency,[1]; [18],"inconclusive: 43.6 µM [fluorescent, partial curve]"
same,"ratio activity, negative = inhibition",[1]; [18],inconclusive: -22.6%
same,Potency,[2],"inconclusive: 0.0422 µM [cytotoxic, full curve, poor fit]"
same,Potency,[10],"inconclusive: 34.4 µM [rising, partial curve]"
same,activation,[10],inconclusive: 22.8%
same,Potency,[3],"inconclusive: 68.6 µM [rising, single point]"
same,"ratio activity, negative = inhibition",[11],inconclusive: 14.8%
same,Potency,[7],inactive
C=C(c1ccc(C(=O)O)cc1)c1cc2c(cc1C)C(C)(C)CCC2(C)C,Potency,[9],"inconclusive: 12 nM [activator, full curve, poor fit] and inconclusive: 54.9 µM"
same,Potency,[2],"active: 19.5 µM and inconclusive: 33.5 µM [cytotoxic, single point]"
same,Potency,[3],"inconclusive: 33.5 µM [cytotoxic, single point]"
same,Potency,[12],active: 11 µM and active: 21.1 µM
same,Potency,[4],inconclusive: 36 µM and inconclusive: 31 µM
same,Potency,[5],"active: 61.6 µM and inconclusive: 33.5 µM [cytotoxic, single point]"
same,Potency,[6],active: 21.9 µM and active: 29.8 µM
same,Potency,[7],"active: 24.5 µM and inconclusive: 33.5 µM [cytotoxic, single point]"
same,Potency,[13],"inconclusive: 33.5 µM [falling, single point]"
same,Potency,[14],"inconclusive: 34.7 µM [fluorescent, partial curve] and inconclusive: 23.9 µM [fluorescent, partial curve]"
same,Potency,[8],"inconclusive: 24.5 µM [cytotoxic, full curve] and active: 21.3 µM"
COc1cc(Cc2cnc(N)nc2N)cc(OC)c1OC,Potency,[9],inactive
same,Potency,[4],inactive
CCCCNS(=O)(=O)c1ccccc1,"ratio activity, negative = inhibition",[1]; at 62.6 µM (top of the series),inactive: -15.7%
same,"ratio activity, negative = inhibition",[1]; [18],inconclusive: -24.1%
same,Potency,[10],inactive
same,Potency,[4],inactive
same,Potency,[6],"inconclusive: 12.3 µM [cytotoxic, single point]"
same,Potency,[13],"inconclusive: 54.2 µM [falling, single point]"
same,Potency,[8],inactive
CC(C)(c1ccccc1)c1ccccc1,Potency,[9],inactive
same,"ratio activity, negative = inhibition",[1]; [18],inconclusive: -7.3%
same,Potency,[4],inactive
same,Potency,[5],inactive
COCC(=O)Nc1c(I)c(C(=O)NCC(O)CO)c(I)c(C(=O)N(C)CC(O)CO)c1I (stereo unspecified),Potency,[9],inactive
same,Potency,[10],inactive
same,Potency,[4],inactive
same,Potency,[11],inactive
S=C(NC1CCCCC1)NC1CCCCC1,activation,[9],inconclusive: 1.29%
same,"activity change, negative = cytotoxicity",[2],inconclusive: -30.5% [cytotoxic]
same,Potency,[10],inconclusive: 19 µM and active: 34.4 µM
same,Potency,[12],"inconclusive: 21.5 µM [cytotoxic, partial curve, poor fit] and inconclusive: 34.7 µM [cytotoxic, partial curve, poor fit]"
same,Potency,[4],active: 9.23 µM and active: 13.8 µM
same,Potency,[5],"inconclusive: 13.5 µM [cytotoxic] and inconclusive: 27.5 µM [cytotoxic, full curve]"
same,Potency,[15],"inconclusive: 21.5 µM [rising, single point]"
same,Potency,[6],"inconclusive: 12.1 µM [cytotoxic, partial curve] and inconclusive: 49 µM [cytotoxic, partial curve, poor fit]"
same,Potency,[7],"inconclusive: 6.79 µM [cytotoxic, full curve]"
same,Potency,[13],"inconclusive: 15.2 µM [falling, partial curve]"
same,activation,[16]; activation: at 63.5 µM (top of the series) unless noted,inconclusive: -16%
same,activation,[16]; at 63.5 µM (top of the series),inactive: 5.05%
same,Potency,[17],"inconclusive: 17 µM [cytotoxic, partial curve] and active: 24.5 µM"
CCCCOCCOCCOC(C)=O,"ratio activity, negative = inhibition",[1]; at 62.6 µM (top of the series),inactive: 7.11%
same,"ratio activity, negative = inhibition",[1]; [18],inconclusive: 9.86%
same,Potency,[12],"inconclusive: 47.9 µM [rising, partial curve, poor fit]"
same,Potency,[15],inactive
same,Potency,[11],"inconclusive: 53.7 µM [activator, single point] and inactive"
same,Potency,[17],"inconclusive: 21.4 µM [rising, partial curve, poor fit]"
